According to patent US7410975B2, “Small molecule toll-like receptor (TLR) antagonists” (Coley Pharmaceutical Group, Inc., priority 2003, dated 2008):
Structures can show the parent of a compound that is named as a salt.

Molecular target: T1, human TLR8 (hTLR8) (Homo sapiens, UniProt Q9NR97)
T1 construct: expressed in transfected cells
T1 sequence (Q9NR97 27-1041): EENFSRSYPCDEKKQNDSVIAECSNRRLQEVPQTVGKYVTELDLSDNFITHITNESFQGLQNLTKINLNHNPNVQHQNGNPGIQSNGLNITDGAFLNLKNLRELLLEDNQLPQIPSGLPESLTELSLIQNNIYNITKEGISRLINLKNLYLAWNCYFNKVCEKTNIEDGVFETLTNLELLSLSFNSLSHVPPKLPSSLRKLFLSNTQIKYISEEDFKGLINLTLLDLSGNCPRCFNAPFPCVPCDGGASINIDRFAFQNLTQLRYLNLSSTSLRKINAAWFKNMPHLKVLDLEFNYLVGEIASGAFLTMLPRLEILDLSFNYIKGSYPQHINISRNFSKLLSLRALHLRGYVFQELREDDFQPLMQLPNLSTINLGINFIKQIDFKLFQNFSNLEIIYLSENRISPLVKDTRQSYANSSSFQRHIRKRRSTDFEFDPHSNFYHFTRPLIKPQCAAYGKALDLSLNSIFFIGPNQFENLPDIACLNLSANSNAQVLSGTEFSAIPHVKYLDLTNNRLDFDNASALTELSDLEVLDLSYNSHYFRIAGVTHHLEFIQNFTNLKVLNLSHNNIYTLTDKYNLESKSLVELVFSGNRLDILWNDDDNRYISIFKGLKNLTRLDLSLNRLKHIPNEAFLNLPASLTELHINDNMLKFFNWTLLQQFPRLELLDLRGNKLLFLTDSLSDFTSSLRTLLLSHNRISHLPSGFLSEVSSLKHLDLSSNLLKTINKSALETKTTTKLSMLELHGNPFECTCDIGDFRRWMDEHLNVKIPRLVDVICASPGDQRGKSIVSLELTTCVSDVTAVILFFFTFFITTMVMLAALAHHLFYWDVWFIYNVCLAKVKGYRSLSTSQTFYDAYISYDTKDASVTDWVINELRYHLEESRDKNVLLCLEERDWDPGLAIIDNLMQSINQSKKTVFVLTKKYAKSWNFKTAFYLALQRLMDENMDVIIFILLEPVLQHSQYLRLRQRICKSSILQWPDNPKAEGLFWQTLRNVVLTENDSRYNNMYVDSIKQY
Assay: Antagonist screen, hTLR8-NFκB-293 cells, NF-κB-luciferase reporter, with EC50 of R848
Assay type: cell-based
Conditions: compound at 0.5, 5, 50 μg/ml, EC50 concentration of R848, 16 h
Description: The method is described in greater detail as follows. The cells for each individual cell clone (hTLR3-NFκB-293, hTLR7-NFκB-293, hTLR8-NFκB-293 and hTLR9-NFκB-293) were counted and seeded one day before the stimulation at 1.5×10^4 cells per well in 96-well cell culture plates. To become adherent the cells were incubated after seeding overnight at 37° C. in 5% CO2 humidified air.
The screen for each compound was performed at the same time for all of the receptors TLR3, TLR7, TLR8 and TLR9. Up to fifteen test compounds, each assayed in duplicate at each of three different final concentrations (0.5 μg/ml, 5 μg/ml, and 50 μg/ml), were used for 16 h cell stimulation on a single multiwell culture plate. A 4× final concentration master plate was created to prepare the different test compounds before they were added to the cells.
Controls were added as duplicates individually for each cell clone on the cell culture plate. Positive controls were used as follows (final concentrations): 50 μg/ml poly(I:C) for hTLR3-NFκB-293; 8 μM resiquimod (R848) for hTLR7-NFκB-293; 30 μM R848 for hTLR8-NFκB-293; and 2.5 μM CpG-ODN 2006 for hTLR9-NFκB-293. Media alone was used as negative control. After addition of controls and small molecules, the cell clones were additionally stimulated with the EC50 concentration of the appropriate receptor-specific ligand. […]
The baseline result (measured with addition of the EC50 concentration of the receptor-specific ligand) for each cell culture plate was measured as described above. Antagonistic effects were measured by down regulation compared to the baseline. Antagonists were scored as follows: • 13: compounds for which there was clear down regulation at 0.5 μg/ml, 5 μg/ml, and 50 μg/ml; • 12: compounds for which there was clear down regulation at 5 μg/ml and 50 μg/ml; • 11: compounds for which there was clear down regulation only at 50 μg/ml; • —: compounds for which there was no clear down regulation even at 50 μg/ml. […]
Results were expressed as fold induction over baseline luciferase activity measured in the absence of R848. […]

Row | SMILES | hTLR8 (inhibitory effect, antagonist score)
1 | CN1CCN2c3ccccc3Cc3ccccc3C2C1.Cl (stereo not drawn) [compound 99, Mianserinehydrochloride] | — (compounds for which there was no clear down regulation even at 50 μg/ml)
2 | Cc1ccccc1C(OCCN(C)C)c1ccccc1 (stereo not drawn) [compound 239, Orphenadrinehydrochloride] | — (compounds for which there was no clear down regulation even at 50 μg/ml)
3 | CN1CCC[C@@H]1CCO[C@](C)(c1ccccc1)c1ccc(Cl)cc1.O=C(O)/C=C/C(=O)O [compound 306, Clemastine fumarate] | 11 (compounds for which there was clear down regulation only at 50 μg/ml)
